According to the supplement of paper PMC7826260:
Some of the results follow. Viral Rep nickase domains cut single-stranded DNA in vitro at 3 µM enzyme and 37 °C for 1 h; the strands have 90 letters, of which the middle is given. A value is the log2 ratio of uncut reads to the pool without enzyme; the lower, the more was cut; hits are not called. Reads are scaled to the total; uncut strands gain when others are lost, and binding without cutting may add a little.

Experiments:
Test in all cases: uncleaved DNA left, log2 of reads against the no-enzyme library (log2 ratio); higher = less cleavage (more negative = more Rep cleavage of the k-mer); sequences stand for … in CTCGTCCG…ACCGGAGA
[1] = tested on: T1, Rep nickase domain of Muscovy duck circovirus
T1 sequence (residues 1-111 of Rep, tag left off): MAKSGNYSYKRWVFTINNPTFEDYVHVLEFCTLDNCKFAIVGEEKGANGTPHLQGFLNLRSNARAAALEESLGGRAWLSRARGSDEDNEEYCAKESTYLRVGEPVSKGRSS
Method: (§1)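 A pool of 90-nt single-stranded DNAs with seven random bases just before the constant AC of the nick site (name = the seven bases) was cut by 3 µM recombinant His6-SUMO-tagged Rep nickase domain (300 nM DNA, 50 mM HEPES pH 8.0, 50 mM NaCl, 1 mM MnCl2, 1 h, 37 °C, three replicates). Uncut DNA was amplified and sequenced.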

[2] = tested on: T2, Rep nickase domain of banana bunchy top virus
T2 sequence (residues 1-94 of Rep, tag left off): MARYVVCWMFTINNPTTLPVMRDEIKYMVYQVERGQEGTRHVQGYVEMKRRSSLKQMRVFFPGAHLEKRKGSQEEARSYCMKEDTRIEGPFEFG
Method: as §1

[3] = tested on: T3, Rep nickase domain of cabbage leaf curl virus
T3 sequence (residues 1-116 of Rep, tag left off): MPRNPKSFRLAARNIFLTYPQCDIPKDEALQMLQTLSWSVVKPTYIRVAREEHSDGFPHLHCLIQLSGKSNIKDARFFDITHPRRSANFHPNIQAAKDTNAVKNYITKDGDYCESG
Method: as §1

[4] = tested on: T4, Rep nickase domain of chickpea chlorotic dwarf virus
T4 sequence (residues 1-124 of Rep, tag left off): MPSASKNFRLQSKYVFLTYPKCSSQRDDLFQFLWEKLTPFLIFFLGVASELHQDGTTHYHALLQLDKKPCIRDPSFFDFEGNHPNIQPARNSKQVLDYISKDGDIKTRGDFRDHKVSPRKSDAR
Method: as §1

[5] = tested on: T5, Rep nickase domain of faba bean necrotic yellows virus
T5 sequence (residues 1-98 of Rep, tag left off): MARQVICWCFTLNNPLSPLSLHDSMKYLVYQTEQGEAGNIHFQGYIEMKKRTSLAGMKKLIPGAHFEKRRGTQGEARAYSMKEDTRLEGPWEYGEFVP
Method: as §1

[6] = tested on: T6, Rep nickase domain of maize striate mosaic virus
T6 sequence (residues 1-117 of Rep, tag left off): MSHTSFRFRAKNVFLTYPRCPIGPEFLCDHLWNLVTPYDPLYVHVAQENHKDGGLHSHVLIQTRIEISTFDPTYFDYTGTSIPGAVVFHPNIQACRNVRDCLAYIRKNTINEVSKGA
Method: as §1

[7] = tested on: T7, Rep nickase domain of porcine circovirus 2
T7 sequence (residues 2-116 of Rep, tag left off): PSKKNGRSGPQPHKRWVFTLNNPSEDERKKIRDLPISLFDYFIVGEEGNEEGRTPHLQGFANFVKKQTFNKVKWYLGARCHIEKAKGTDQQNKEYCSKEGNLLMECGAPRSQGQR
Method: as §1

[8] = tested on: T8, Rep nickase domain of tomato golden mosaic virus
T8 sequence (residues 1-124 of Rep, tag left off): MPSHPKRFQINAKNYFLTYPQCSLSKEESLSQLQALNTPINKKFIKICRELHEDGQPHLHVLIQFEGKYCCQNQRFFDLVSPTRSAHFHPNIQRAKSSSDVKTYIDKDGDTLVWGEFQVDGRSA
Method: as §1

[9] = tested on: T9, Rep nickase domain of tomato yellow leaf curl virus
T9 sequence (residues 1-136 of Rep, tag left off): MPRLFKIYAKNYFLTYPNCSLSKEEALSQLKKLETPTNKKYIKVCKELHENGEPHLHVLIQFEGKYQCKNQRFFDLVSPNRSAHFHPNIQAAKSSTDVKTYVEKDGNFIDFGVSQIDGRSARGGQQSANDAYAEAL
Method: as §1

[10] = tested on: T10, Rep nickase domain of wheat dwarf virus
T10 sequence (residues 1-137 of Rep, tag left off): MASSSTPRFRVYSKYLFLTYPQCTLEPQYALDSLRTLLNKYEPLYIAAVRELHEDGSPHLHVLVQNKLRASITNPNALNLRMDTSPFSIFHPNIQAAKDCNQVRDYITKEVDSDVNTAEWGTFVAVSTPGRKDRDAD
Method: as §1

Sequence | uncleaved DNA left (log2) [1] | uncleaved DNA left (log2) [2] | uncleaved DNA left (log2) [3] | uncleaved DNA left (log2) [4] | uncleaved DNA left (log2) [5] | uncleaved DNA left (log2) [6] | uncleaved DNA left (log2) [7] | uncleaved DNA left (log2) [8] | uncleaved DNA left (log2) [9] | uncleaved DNA left (log2) [10]
AATATGC | 0.0672 | -0.0359 | -0.629 | -0.469 | 0.0925 | -1.13 | 0.156 | -0.0246 | 0.0732 | -0.0088
GGTCGCC | 0.0909 | 0.126 | 0.416 | 0.906 | 0.00307 | 1.22 | 0.143 | 0.0293 | 0.0818 | 0.105
CCGTTAC | -0.0313 | -0.0912 | -0.104 | -1.24 | 0.0389 | -0.378 | -0.0562 | -0.0654 | -0.0273 | -0.0883
AGAGGAA | -0.103 | 0.00319 | 0.195 | 1.32 | -0.127 | 1.48 | 0.113 | 0.079 | -0.193 | -0.0524
ACACTTA | -0.173 | -0.129 | -0.427 | -1.52 | -0.153 | -0.957 | -0.0381 | -0.128 | -0.0869 | -0.061
ATGGTCT | -0.00944 | -0.0678 | -0.0373 | -0.742 | -0.0715 | 0.416 | -0.115 | -0.0178 | -0.138 | -0.087
CCCAGCC | -0.0661 | -0.159 | -0.186 | -0.386 | -0.0272 | -0.952 | 0.0622 | -0.0729 | -0.153 | -0.0454
TGGACCA | -0.00864 | 0.0872 | 0.742 | 1.56 | -0.0349 | 1.92 | 0.0941 | 0.0453 | 0.103 | 0.219
AGATTAC | 0.0542 | -0.0825 | -0.0905 | -1.55 | 0.102 | -0.491 | 0.0375 | -0.0195 | -0.0485 | 0.0101
ATCAGTT | 0.0087 | -0.091 | -0.213 | -2.23 | -0.026 | -0.62 | -0.223 | -0.0622 | -0.106 | -0.0948
GCTGCGC | -0.186 | -0.11 | -0.664 | -0.104 | 0.034 | -0.742 | 0.123 | -0.0929 | -0.00353 | -0.0553
TGCCGGT | -0.101 | -0.119 | 0.175 | 0.301 | -0.167 | 0.479 | -0.0127 | -0.2 | -0.139 | -0.0649
GTCCCAC | -0.02 | 0.093 | 0.256 | 0.87 | -0.0601 | 1.64 | 0.0307 | -0.0191 | 0.0406 | 0.104
AACGCGA | 0.0472 | -0.0276 | -0.797 | -0.209 | -0.0401 | -0.815 | -0.00785 | -0.0631 | -0.0578 | -0.169
CGGAATT | -0.0978 | -0.0612 | 0.383 | -0.03 | -0.0806 | 1.17 | -0.467 | -0.219 | -0.00592 | 0.108
GCTGAGA | -0.0439 | 0.0654 | 0.207 | 0.616 | 0.0433 | 0.288 | 0.115 | 0.0527 | 0.0788 | 0.0873
CTTCCGT | 0.0847 | -0.101 | -0.248 | -0.782 | 0.0494 | -0.953 | 0.0241 | -0.0549 | -0.104 | -0.14
TCTTGTG | 0.0216 | 0.0779 | -0.671 | 0.0536 | 0.131 | -0.817 | 0.202 | -0.0174 | 0.0528 | -0.0257
GAATACA | -0.159 | 0.0192 | 0.014 | -1.64 | 0.0452 | 0.69 | -0.575 | 0.0698 | 0.0979 | 0.0114
CCGCTAC | 0.0939 | 0.0368 | -0.0563 | -1.28 | 0.0614 | -0.333 | -0.0687 | 0.00482 | -0.00481 | -0.00957
AGACCGA | -0.0563 | -0.0209 | 0.381 | 0.682 | -0.136 | 0.989 | -0.0564 | -0.118 | -0.126 | -0.0616
TTAATTT | -0.0885 | 0.022 | 0.212 | -2.16 | -0.093 | -0.329 | -0.387 | -0.194 | -0.0431 | -0.279
CCACCTA | -0.202 | -0.00229 | -0.0924 | -1.35 | -0.0403 | -0.778 | -0.322 | -0.155 | -0.0309 | -0.056
CGAGATA | -0.00897 | 0.0162 | -0.281 | -0.469 | -0.0554 | -0.115 | -0.353 | 0.0213 | -0.106 | -0.0685
AGTCTAT | -0.14 | -0.282 | -0.0185 | -0.336 | -0.0888 | -0.0634 | -3.36 | -0.228 | -0.152 | -0.15
GACGATA | 0.0388 | -0.0119 | 0.24 | -0.735 | 0.0295 | 0.723 | -0.053 | -0.0461 | -0.0978 | 0.035
GTATAGA | 0.146 | 0.181 | 0.381 | 0.825 | 0.0577 | 1.2 | 0.22 | 0.192 | 0.121 | 0.262
CCAGAGA | 0.146 | 0.0414 | 0.326 | 0.64 | 0.127 | -0.375 | 0.21 | 0.191 | 0.182 | 0.172
CCGACAT | 0.0677 | 0.129 | 0.563 | 1.53 | -0.066 | 1.78 | 0.229 | 0.0798 | 0.0424 | 0.161
ACTGACT | 0.235 | 0.141 | 0.144 | 0.416 | 0.00882 | 0.734 | 0.039 | 0.166 | 0.0303 | 0.167
